PMC4336329 (PLoS ONE, 2015)
About 2,200 (0.71%) of roughly 310,000 compounds showed an effect of 50% or more. Effects have a minus sign here. The list shows a part of the results.

The compounds below were run against human ether-à-go-go-related gene (hERG) potassium channel (human, UniProt Q12809) (assay: primary screen, population patch clamp on CHO cells stably expressing hERG).
Chain of human ether-à-go-go-related gene (hERG) potassium channel (Q12809 whole entry, looked up): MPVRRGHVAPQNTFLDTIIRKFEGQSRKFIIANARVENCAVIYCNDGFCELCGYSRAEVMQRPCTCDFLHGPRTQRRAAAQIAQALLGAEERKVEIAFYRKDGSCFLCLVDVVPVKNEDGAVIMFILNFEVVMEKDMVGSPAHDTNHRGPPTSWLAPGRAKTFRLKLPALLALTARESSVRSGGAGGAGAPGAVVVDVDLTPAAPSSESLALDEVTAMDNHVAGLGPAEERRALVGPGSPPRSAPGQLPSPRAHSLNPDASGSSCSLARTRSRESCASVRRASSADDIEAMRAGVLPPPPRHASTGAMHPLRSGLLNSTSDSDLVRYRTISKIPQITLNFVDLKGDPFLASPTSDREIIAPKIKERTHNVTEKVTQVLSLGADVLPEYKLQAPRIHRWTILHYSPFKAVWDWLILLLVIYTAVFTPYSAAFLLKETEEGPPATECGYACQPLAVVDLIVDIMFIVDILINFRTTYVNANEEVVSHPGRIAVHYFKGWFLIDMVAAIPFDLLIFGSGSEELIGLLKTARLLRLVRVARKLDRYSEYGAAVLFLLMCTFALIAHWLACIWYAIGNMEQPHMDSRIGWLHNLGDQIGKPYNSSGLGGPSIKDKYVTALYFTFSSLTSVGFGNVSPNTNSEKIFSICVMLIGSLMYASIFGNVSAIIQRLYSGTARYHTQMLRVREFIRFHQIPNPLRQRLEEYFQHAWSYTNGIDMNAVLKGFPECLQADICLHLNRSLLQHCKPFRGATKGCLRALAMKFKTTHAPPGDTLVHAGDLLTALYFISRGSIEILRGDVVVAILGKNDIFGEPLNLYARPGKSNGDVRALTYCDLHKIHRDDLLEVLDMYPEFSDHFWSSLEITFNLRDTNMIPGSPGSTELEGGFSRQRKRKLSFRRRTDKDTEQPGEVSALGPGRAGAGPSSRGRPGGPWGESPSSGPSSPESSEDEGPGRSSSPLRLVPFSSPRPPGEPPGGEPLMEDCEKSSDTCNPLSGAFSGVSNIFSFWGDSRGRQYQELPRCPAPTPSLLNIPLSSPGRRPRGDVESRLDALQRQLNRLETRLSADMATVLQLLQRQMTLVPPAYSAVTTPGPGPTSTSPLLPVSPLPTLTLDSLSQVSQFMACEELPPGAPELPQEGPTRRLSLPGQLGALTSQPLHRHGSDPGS

| SMILES | hERG current change (%, negative = inhibition) at 1uM [%] |
| --- | --- |
| CCOC(=O)c1c(CSc2ccccc2)n(C)c2ccc(O)c(CN3CCN(C)CC3)c12 | 10.4 |
| CSc1nc2nc(-c3ccccc3)cc(=O)n2[nH]1 | -16.2 |
| COc1cc2[nH]c(=O)n(CCC(=O)N3CCN(Cc4ccccc4)CC3)c(=O)c2cc1OC | 8.65 |
| CCc1ccc(NC(=O)CNC(=O)c2nn(-c3ccc(OC)cc3)c(=O)c3ccccc23)cc1 | 8.44 |
| COc1ccc(CN(CC(=O)NC2CCCC2)C(=O)c2onc(C(N)=O)c2N)cc1 | 0.575 |
| CCC(CC)C(=O)Nc1cccc(S(=O)(=O)c2cccc(NC(=O)C(CC)CC)c2)c1 | 16.4 |
| COc1ccc(CN2CCCC(C(=O)N3CCCCC3)C2)c(OC)c1.O=C(O)C(=O)O (centres unmarked) | 1.97 |
| Cn1c(SCC(=O)Nc2ccc3nc(SCC(=O)NC4CC4)sc3c2)nnc1-c1ccccc1 | 2.29 |
| Cc1ccc(S(=O)(=O)NC(C(=O)N2CCOCCOCCOCC2)C(C)C)cc1 (centres unmarked) | 10.1 |
| COc1ccc(N=C2SC(C(N)=O)CC(=O)N2Cc2ccc3c(c2)OCO3)cc1 (centres unmarked) | 15.3 |
| O=c1[nH]c(=S)c2ncn(-c3ccccc3)c2[nH]1 | 9.41 |
| O=C(Nc1cccc(F)c1)c1cccc(S(=O)(=O)N2CCOCC2)c1 | -5.25 |
| CCCCc1n[nH]c(=S)n1Cc1ccc(C)cc1 | -5.06 |
| COc1cccc(C(=O)N=c2sc3c(C)ccc(OC)c3n2C)c1 | 5.43 |
| O=[N+]([O-])CC(c1ccccc1)c1c[nH]c2ccccc12 (centres unmarked) | 11.6 |
| O=[N+]([O-])c1ccc(C[n+]2cccc3ccccc32)cc1.[Cl-] | 4.56 |
| COc1ccccc1/C(C)=N/Oc1cc(N)cc([N+](=O)[O-])c1 | 12.9 |
| O=C(NCc1cccs1)c1ccccc1[N+](=O)[O-] | 10.2 |
| CCc1cc(-c2nc(N)ncc2-c2csc(C)n2)c(O)cc1OC | -4.12 |
| CC(Sc1nc2ccccc2c(=O)n1CC1CCCO1)C(=O)N(C)c1ccccc1 (centres unmarked) | -5.79 |
| O=C1S/C(=C\c2ccc(O)c([N+](=O)[O-])c2)C(=O)N1Cc1cccc([N+](=O)[O-])c1 | 5.15 |
| OCCCn1c(-c2ccccc2)nc(=S)c2c1CCCC2 | 9.22 |

| SMILES | hERG current change (%, negative = inhibition) at 1uM [%] |
| --- | --- |
| COc1cccc(-c2nnc(SCC(=O)Nc3ccc4c(c3)OCCO4)n2Cc2ccco2)c1 | 4.97 |
| COc1ccc(/C=C(\NC(=O)c2ccc(OC)c(OC)c2)C(=O)NCCc2c[nH]c3ccccc23)cc1 | 5.53 |
| CC(=O)Nc1ccc(NC(=O)COC(=O)Cc2cccs2)cc1 | 13.2 |
| Cc1cccc(N=C2NC(=O)CS2)c1 | 3.4 |
| COCCCNC(=O)CC(NS(=O)(=O)c1ccc(OC)cc1)c1ccc(OC)cc1 (centres unmarked) | 13.1 |
| O=C1N(Cc2ccccc2)c2ccc(Cl)cc2C12OCCO2 | 23.5 |
| CC(C)CNS(=O)(=O)c1ccc(OCC(=O)NCC2CCCO2)c(Cl)c1 (centres unmarked) | 5.05 |
| CCN(CC)CCCn1c(C)cc2c(c1=O)C(c1ccc(OC)c(OC)c1OC)C(C#N)=C(N)O2 (centres unmarked) | 16.2 |
| COc1ccc2c(c1)c(C(=O)N/N=C/c1cn(C)c3ccccc13)c(C)n2C | 8.71 |
| CCN(CC)C(=O)CSc1n[nH]c(=O)n1CCc1ccccc1 | 13.1 |
| Cc1nn(C)c(Oc2ccccc2)c1[N+](=O)[O-] | 3.16 |
| N#CCOC(=O)c1c2c(nc3ccccc13)CCC2 | 11.7 |
| COc1cc(OC)cc(C(=O)N[C@H](C(=O)OCC(=O)c2ccc(F)cc2)C(C)C)c1 | 0.225 |
| Cc1ccc(CNCC(O)c2ccccc2)s1.Cl (centres unmarked) | 16.8 |
| CC(C)(C)C(=O)Nc1cccc(S(=O)(=O)NC2=NCCC2)c1 | 7.28 |
| CC(C)Cc1nnc(NC(=O)CSc2ccccn2)s1 | 3.69 |
| O=[N+]([O-])c1cc(/C=N/n2c(-c3cccnc3)n[nH]c2=S)ccc1Cl | 10.7 |
| Cc1ccc(S(=O)(=O)N(C)Cc2nc(-c3ccccn3)no2)cc1 | 8.03 |
| C=CCn1nnnc1SCC(=O)Nc1cccc(OC)c1 | -8.14 |
| CCc1cc(=O)oc2c(C)c(OCC(=O)N3CC[C@@]4(O)CCCC[C@H]4C3)ccc12 | 0.579 |
| CC(C)C(=O)Nc1cc2c3c(c1)CCC(=O)N3CCC2 | 0.5 |
| CCOC(=O)C1CCN(C(=O)c2sc3ncnc(N4CCC(C)CC4)c3c2C)CC1 | -57.3 |
